# According to PubChem BioAssay AID651820 (National Center for Advancing Translational Sciences (NCATS), 2012):
# In all, about 340,000 compounds went through this assay and about 12,000 (3.5%) were called active. The inconclusive results got no clear call from the source; some entries with a clear call stand among them for comparison. Calls follow the shape of the dose curve; as a rule, active = well fitted inhibition curve with a large enough effect; inconclusive = small, poorly fitted or top-dose-only effect, or another doubt; inactive = no such curve, though single readings can be large or run the other way. No potency is given beside an inconclusive call; the fits are too rough.
# Assay: qHTS Assay for Inhibitors of Hepatitis C Virus (HCV)
# Details: Huh7.5.1 HCVcc-Cre (HCVcc is cell-culture hepatitis C virus) infection, luciferase reporter, 44 h; activity change, negative = inhibition: at 41.8 µM (top of the series)
# Outline: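 A cell-based infection assay in which seeded cells (1,000 per well) receive test compound after 4 h, are inoculated with HCVcc-Cre at approximately 0.5 moi, and are incubated 44 h before luminescence detection.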
# % is scaled to controls: 0 for no effect and ±100 for the full control effect; potency is read from the fitted curve at half-maximal effect; tags tell the direction and shape of the fitted curve.
Structure (SMILES),"activity change, negative = inhibition",Potency
Cc1ccc(NC(=O)CSc2nnc(-c3ccccc3Br)o2)cc1C,inactive: -22.4%,
CN(c1ccccc1)S(=O)(=O)c1nnc(NC(=O)C2CCCCC2)s1,inactive: 11.7%,
COCC(=O)N1CCC(Oc2ccc(C(=O)N(C)CCCC3CCCC3)cc2)CC1,,"inconclusive [inhibitor, single point]"
CCOC(=O)c1cccc(NC(=S)N2CCN(c3ncc4c(=O)c(C(=O)O)cn(CC)c4n3)CC2)c1,inactive: 5.3%,
Cn1nc(C(=O)NCc2cccc(Cl)c2)c2c1-c1ccccc1S(=O)(=O)C2,,"inconclusive [inhibitor, partial curve]"
CCCCCCCCC1CC(C(=O)Nc2ccccc2)C(=O)O1 (stereo unspecified),,"inconclusive [inhibitor, single point]"
COc1cc(C#Cc2c(-c3cncn3C)n(C)c3ccc(Br)cc23)cc(OC)c1,,active: 1.12 µM
N#CC(C(=O)OCc1ccccc1)c1nc2ccccc2nc1N1CCOCC1 (stereo unspecified),,"inconclusive [inhibitor, partial curve]"
Cc1nc2ccccc2n2c(-c3ccccc3)c3c(=O)n(C)c(=O)n(C)c3c12,,"inconclusive [inhibitor, single point]"
Cc1c(C(=O)NCc2ccccn2)sc2nc(-c3ccc(F)cc3)cn12,,"inconclusive [inhibitor, single point]"
N=C1S/C(=C\c2cn[nH]c2-c2ccc(F)cc2)C(=O)N1c1ccccc1F,,"inconclusive [inhibitor, partial curve]"
O=S(=O)(N1CCOCC1)N1CCCN(S(=O)(=O)N2CCOCC2)CC1,inactive: 6.11%,
CCc1ccc(NC2=NCC(c3ccccc3)S2)cc1 (stereo unspecified),,"inconclusive [inhibitor, single point]"
O=C(Nc1ccc(S(=O)(=O)N2CCCCC2c2cccnc2)cc1)c1ccccc1F (stereo unspecified),inactive: -8.57%,
CCOc1ccc(NC(=S)NC(=O)c2ccco2)cc1,inactive: -5.24%,
CN(C(=O)c1ccc2c(Cl)c3c(nc2c1)CCC3)c1ccccc1,inactive: -21.3%,
CC(=O)Nc1nc(COc2ccc3ccccc3c2)cs1,,"inconclusive [inhibitor, single point]"
Cc1sc2ncnc(N3CCC(C(=O)NNC(=O)c4ccccc4Cl)CC3)c2c1C,,"inconclusive [inhibitor, partial curve, poor fit]"
O=C(CCS(=O)(=O)c1ccccc1)Nc1ccccc1-c1nc2ccccc2s1,,"inconclusive [inhibitor, single point]"
Cc1ccccc1C(=O)NCc1nnc(SCC(=O)N2c3ccccc3Sc3ccccc32)n1C,,"inconclusive [inhibitor, partial curve]"
c1ccc(-c2nc3nc4ccccc4nc3n2CC2CCCO2)cc1 (stereo unspecified),inactive: -17.8%,
CCc1c(C)c(C#N)c2[nH]c3ccccc3n2c1=S,inconclusive: -61.1% [inhibitor],
Cc1ccc(NC(=O)Nc2nc(-c3ccc(C)s3)cs2)cc1,,"inconclusive [inhibitor, single point]"
COc1ccccc1NS(=O)(=O)c1cc(C(=O)NCCC(C)C)ccc1F,,"inconclusive [inhibitor, partial curve]"

Structure (SMILES),"activity change, negative = inhibition",Potency
CC(C)(C)C1COc2ccccc2N1C(=O)c1cccc(Cl)c1 (stereo unspecified),,"inconclusive [inhibitor, single point]"
COCCN(C(=O)COC(=O)CCSc1ccc(F)cc1)c1c(N)n(Cc2ccccc2)c(=O)[nH]c1=O,inactive: -6.99%,
CCOC(=O)/C(C#N)=C/c1c(N2CCN(c3ccc(OC)cc3)CC2)nc2c(C)cccn2c1=O,,"inconclusive [inhibitor, single point]"
CC(C)N1CCN(Cc2c[nH]c3ccccc23)CC1CCO (stereo unspecified),inactive: 7.67%,
Cc1ccc(C(=O)NNC(=S)NC(=O)c2ccc(Cl)cc2Cl)cc1,,"inconclusive [inhibitor, partial curve, poor fit]"
O=C(N=Nc1c(O)[nH]c2ccc(Br)cc12)c1cc(-c2cccs2)nc2ccccc12,,"inconclusive [inhibitor, full curve, poor fit]"
CC(C)c1ccc(NC(=S)NNC(=O)c2cccnc2)cc1,inactive: -2.69%,
CC(=O)NC(=S)Nc1ccccc1C(=O)NC1CCCCC1,inactive: 2.12%,
O=C(NCCCN1CCCC1)C1CCC(=O)N1C1CCCCC1 (stereo unspecified),inactive: 18.7%,
CN1CCC(CN)(N2CCN(c3ccccc3)CC2)CC1,,"inconclusive [inhibitor, partial curve]"
CCn1cnc2cc(NCc3ccc(Cl)cc3)ccc21,inactive: -6.2%,
COc1ccc(NC(=O)c2ccc(COc3ccccc3Br)o2)cc1OC,,"inconclusive [inhibitor, partial curve]"
COc1cc2[nH]c(=O)n(Cc3ccc(C(=O)N4CCC(N5CCCCC5)CC4)cc3)c(=O)c2cc1OC,inactive: -6.84%,
CCN(CC)C(=O)Cc1c(OC)ccc2cc(Br)ccc12,inactive: -23.4%,
Cc1nn(Cc2ccccc2)c(C)c1C(=O)OCC(=O)c1cc(C)n(CC(F)(F)F)c1C,,active: 8.91 µM
COCCNC(=O)CN(c1ccc(F)cc1)S(=O)(=O)c1ccc2c(c1)OCCO2,inactive: 1.15%,
O=C(Nc1ccc(Cl)cc1F)c1cc(S(=O)(=O)N2CCCCC2)ccc1F,,"inconclusive [inhibitor, full curve, poor fit]"
Cc1cc2cc(C(c3nnnn3Cc3ccco3)N3CCCCC3)c(=O)[nH]c2cc1C (stereo unspecified),,"inconclusive [inhibitor, single point]"
CO/N=C(/CNC(=O)c1cccc(Cl)c1)c1ccc(Cl)cc1,,"inconclusive [inhibitor, partial curve]"
FC(F)(F)c1cccc(NC(=S)N2CCCCCC2)c1,inactive: 11.6%,
COC(=O)c1ccc(NC(=O)COc2cccc3c2OC(C)(C)C3)cc1,,"inconclusive [inhibitor, partial curve]"
COc1ccc2oc(C(=O)c3ccccc3)c(NC(=O)CN3CCN(C)CC3)c2c1,inactive: 1.47%,
Cc1ccc(CN(C)C(=O)CN2C(=O)NC(c3ccccc3)(c3ccccc3)C2=O)c(C)c1,,"inconclusive [inhibitor, single point]"
C[C@H](CO)N1C[C@H](C)[C@@H](CN(C)Cc2ccc(Oc3ccccc3)cc2)Oc2ccc(NC(=O)Cn3cnnn3)cc2C1=O,inactive: 32%,

Structure (SMILES),"activity change, negative = inhibition",Potency
CN(C)S(=O)(=O)c1cccc(NC(=O)COC(=O)c2cn(-c3ccccc3)nc2-c2ccccc2)c1,,"inconclusive [inhibitor, partial curve]"
CC(C)Cn1c(/C=C/c2ccccc2)nc2ccccc21,,"inconclusive [inhibitor, partial curve, poor fit]"
COc1ccc(C(=O)N/N=C/c2cc(Br)ccc2O)cc1OC,,active: 11.2 µM
COc1cc([N+](=O)[O-])cc(/C=N/NC(=O)c2cncc(Br)c2)c1O,,"inconclusive [inhibitor, single point]"
Clc1ccc(Cn2nnc(-c3ccc(CN4CCOCC4)cc3)n2)cc1,inactive: -5.78%,
Cc1cc(-c2ccccc2)nc(N/N=C/c2ccccc2)n1,,"inconclusive [inhibitor, single point]"
c1cncc(-c2nc(NCc3ccco3)c3ccccc3n2)c1,,active: 10 µM
CCn1cc(SCC(=O)N2CCc3ccccc32)c2ccccc21,,"inconclusive [inhibitor, partial curve]"
Cc1cccn2c(=O)c3cc(C(=O)NCCN4CCOCC4)c(=N)n(Cc4cccnc4)c3nc12,,"inconclusive [inhibitor, single point]"
c1csc(-c2nnc(NC3CCCCC3)c3ccccc23)c1,,"inconclusive [inhibitor, single point]"
COc1ccc(/C=C/C(=O)Nc2ccc3c(c2)CCC3)cc1OC,,"inconclusive [inhibitor, full curve]"
CCOC(=O)N1CCC(n2c(SCC(=O)NCCC3=CCCCC3)nc3ccccc3c2=O)CC1,,"inconclusive [inhibitor, partial curve]"
COC(=O)c1c(-c2ccc(S(C)(=O)=O)cc2)sc2ccc(OC)cc12,,"inconclusive [inhibitor, partial curve]"
O=C(CNC(=O)c1sc2ccccc2c1Cl)NCc1cccc(C(F)(F)F)c1,inactive: 5.89%,
CCc1c(C)nc2cc(C)[nH]n2c1=O,,"inconclusive [inhibitor, partial curve]"
CCOc1ccccc1CNC(=O)C1CCN(c2nc3ccccc3o2)CC1,inactive: -22%,
COc1ccc(CNCc2ccc(C(F)(F)F)cc2)cc1OC,,"inconclusive [inhibitor, single point]"
C/C(=C\C(=O)c1ccc(C)cc1)Nc1cccc(O)c1,,active: 12.6 µM
COc1ccc(-c2nnc(COc3ccc4ccccc4c3)o2)cc1OC,,"inconclusive [inhibitor, partial curve]"
Cc1cccc(NS(=O)(=O)c2cccc(C(=O)NCC3(N4CCOCC4)CCCCC3)c2)c1,,"inconclusive [inhibitor, single point]"
c1ccc(Cc2nn3c(C4COc5ccccc5O4)nnc3s2)cc1 (stereo unspecified),inactive: 11.2%,
CCn1nc(C)c(CN2CCC(Oc3ccc(C(=O)N4CCCC4)cc3)CC2)c1C,,"inconclusive [inhibitor, partial curve]"
COc1cccc(N2CCN(C(=O)CN(c3cc(C)cc(C)c3)S(=O)(=O)c3c(C)noc3C)CC2)c1,,"inconclusive [inhibitor, single point]"
